# Some of the results follow.
# B1: DrGal3 (Danio rerio) (protein)
# chain: MDLSDALDAPPQQNNQQAGGPVWPGQPANPVWPGQPANPTWPGQPNQPAWPGQPNQQWPGQPGQPTAPGWPGPAPQTGPYGAPGQAPQVLTVPLDFPLQNGAYNKMLITINGEVKPNAKQFTVNLRRGNDIAFHINPRFSEGGKPVIVRNSMIGNNWGREERELPSFPFVPGKPFEMKILITDTEYKVAVNKSHLLEFKHRVFELNQITGLSIYNDVTLSTVNVETLQ
# Columns and labels:
# Test in all cases: glycan array binding signal (z-score within array); higher = stronger binding
# Conditions in all cases: glycan notation: IUPAC condensed, linker removed
# [1] = target: Fuc(a1-2)Gal
# Summary of the method: (§1)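 From the Consortium for Functional Glycomics database, 3228 arrays were curated, keeping only those whose protein sequence was available. Binding is given as a within-array Z-score averaged across arrays sharing a protein sequence and across linkers. Negative Z-scores can be read as non-binding.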
# [2] = target: Fuc(a1-2)Gal(b1-3)GalNAc
# Summary of the method: as §1
# [3] = target: Fuc(a1-2)Gal(b1-3)GalNAc(a1-3)[Fuc(a1-2)]Gal(b1-4)Glc
# Summary of the method: as §1
# [4] = target: Fuc(a1-2)Gal(b1-3)GalNAc(a1-3)[Fuc(a1-2)]Gal(b1-4)GlcNAc
# Summary of the method: as §1
# [5] = target: Fuc(a1-2)Gal(b1-3)GalNAc(b1-3)Gal
# Summary of the method: as §1
# [6] = target: Fuc(a1-2)Gal(b1-3)GalNAc(b1-3)Gal(a1-4)Gal(b1-4)Glc
# Summary of the method: as §1
# [7] = target: Fuc(a1-2)Gal(b1-3)GalNAc(b1-4)[Neu5Ac(a2-3)]Gal(b1-4)Glc
# Summary of the method: as §1
# [8] = target: Fuc(a1-2)Gal(b1-3)GlcNAc
# Summary of the method: as §1
# [9] = target: Fuc(a1-2)Gal(b1-3)GlcNAc(b1-2)Man(a1-3)[Fuc(a1-2)Gal(b1-3)GlcNAc(b1-2)Man(a1-6)]Man(b1-4)GlcNAc(b1-4)GlcNAc
# Summary of the method: as §1
# [10] = target: Fuc(a1-2)Gal(b1-3)GlcNAc(b1-2)Man(a1-3)[Fuc(a1-2)Gal(b1-3)GlcNAc(b1-2)Man(a1-6)]Man(b1-4)GlcNAc(b1-4)[Fuc(a1-6)]GlcNAc
# Summary of the method: as §1
# [11] = target: Fuc(a1-2)Gal(b1-3)GlcNAc(b1-3)Gal(b1-4)Glc
# Summary of the method: as §1
# [12] = target: Fuc(a1-2)Gal(b1-3)GlcNAc(b1-3)GalNAc
# Summary of the method: as §1
# [13] = target: Fuc(a1-2)Gal(b1-3)GlcNAc(b1-3)[Fuc(a1-2)Gal(b1-3)GlcNAc(b1-6)]GalNAc
# Summary of the method: as §1
# [14] = target: Fuc(a1-2)Gal(b1-3)GlcNAc(b1-3)[Gal(b1-4)GlcNAc(b1-6)]Gal(b1-4)Glc
# Summary of the method: as §1
# [15] = target: Fuc(a1-2)Gal(b1-3)GlcNAc(b1-3)[Neu5Ac(a2-6)Gal(b1-4)GlcNAc(b1-6)]Gal(b1-4)Glc
# Summary of the method: as §1
# [16] = target: Fuc(a1-2)Gal(b1-3)GlcNAc6S
# Summary of the method: as §1
# [17] = target: Fuc(a1-2)Gal(b1-3)[Fuc(a1-4)]GlcNAc
# Summary of the method: as §1
# [18] = target: Fuc(a1-2)Gal(b1-3)[Fuc(a1-4)]GlcNAc(b1-2)Man(a1-3)[Fuc(a1-2)Gal(b1-3)[Fuc(a1-4)]GlcNAc(b1-2)Man(a1-3)]Man(b1-4)GlcNAc(b1-4)GlcNAc
# Summary of the method: as §1
# [19] = target: Fuc(a1-2)Gal(b1-3)[Fuc(a1-4)]GlcNAc(b1-2)Man(a1-3)[Fuc(a1-2)Gal(b1-3)[Fuc(a1-4)]GlcNAc(b1-2)Man(a1-6)]Man(b1-4)GlcNAc(b1-4)[Fuc(a1-6)]GlcNAc(b1-4)[Fuc(a1-6)]GlcNAc
# Summary of the method: as §1
# [20] = target: Fuc(a1-2)Gal(b1-3)[Fuc(a1-4)]GlcNAc(b1-3)[Fuc(a1-3)[Gal(b1-4)]GlcNAc(b1-6)]Gal(b1-4)Glc
# Summary of the method: as §1
# [21] = target: Fuc(a1-2)Gal(b1-3)[Fuc(a1-4)]GlcNAc(b1-3)[Gal(b1-4)GlcNAc(b1-6)]Gal(b1-4)Glc
# Summary of the method: as §1
# [22] = target: Fuc(a1-2)Gal(b1-4)Fuc(a1-3)]GlcNAc(b1-2)Man(a1-3)[Fuc(a1-2)Gal(b1-4)[Fuc(a1-3)]GlcNAc(b1-2)Man(a1-6)]Man(b1-4)GlcNAc(b1-4)GlcNAc
# Summary of the method: as §1
# [23] = target: Fuc(a1-2)Gal(b1-4)Glc
# Summary of the method: as §1
# [24] = target: Fuc(a1-2)Gal(b1-4)Glc6S
# Summary of the method: as §1
# [25] = target: Fuc(a1-2)Gal(b1-4)GlcNAc
# Summary of the method: as §1
# [26] = target: Fuc(a1-2)Gal(b1-4)GlcNAc(b1-2)Man
# Summary of the method: as §1
# [27] = target: Fuc(a1-2)Gal(b1-4)GlcNAc(b1-2)Man(a1-3)[Fuc(a1-2)Gal(b1-4)GlcNAc(b1-2)Man(a1-6)]Man(b1-4)GlcNAc(b1-4)GlcNAc
# Summary of the method: as §1
# [28] = target: Fuc(a1-2)Gal(b1-4)GlcNAc(b1-2)Man(a1-3)[Fuc(a1-2)Gal(b1-4)GlcNAc(b1-2)Man(a1-6)]Man(b1-4)GlcNAc(b1-4)[Fuc(a1-6)]GlcNAc
# Summary of the method: as §1
# [29] = target: Fuc(a1-2)Gal(b1-4)GlcNAc(b1-2)[Fuc(a1-2)Gal(b1-4)GlcNAc(b1-4)]Man(a1-3)[Fuc(a1-2)Gal(b1-4)GlcNAc(b1-2)Man(a1-6)]Man(b1-4)GlcNAc(b1-4)GlcNAc
# Summary of the method: as §1
# [30] = target: Fuc(a1-2)Gal(b1-4)GlcNAc(b1-3)Gal(b1-4)GlcNAc
# Summary of the method: as §1
# [31] = target: Fuc(a1-2)Gal(b1-4)GlcNAc(b1-3)Gal(b1-4)GlcNAc(b1-2)Man(a1-3)[Fuc(a1-2)Gal(b1-4)GlcNAc(b1-3)Gal(b1-4)GlcNAc(b1-2)Man(a1-6)]Man(b1-4)GlcNAc(b1-4)GlcNAc
# Summary of the method: as §1
# [32] = target: Fuc(a1-2)Gal(b1-4)GlcNAc(b1-3)Gal(b1-4)GlcNAc(b1-3)Gal(b1-4)GlcNAc
# Summary of the method: as §1
# [33] = target: Fuc(a1-2)Gal(b1-4)GlcNAc(b1-3)GalNAc
# Summary of the method: as §1
# [34] = target: Fuc(a1-2)Gal(b1-4)GlcNAc(b1-3)[Fuc(a1-2)Gal(b1-4)GlcNAc(b1-6)]GalNAc
# Summary of the method: as §1
# [35] = target: Fuc(a1-2)Gal(b1-4)GlcNAc(b1-3)[Fuc(a1-3)[Gal(b1-4)]GlcNAc(b1-6)]Gal(b1-4)Glc
# Summary of the method: as §1
# [36] = target: Fuc(a1-2)Gal(b1-4)GlcNAc(b1-6)GalNAc
# Summary of the method: as §1
# [37] = target: Fuc(a1-2)Gal(b1-4)GlcNAc6S
# Summary of the method: as §1
# [38] = target: Fuc(a1-2)Gal(b1-4)[Fuc(a1-3)]GlcNAc
# Summary of the method: as §1
# [39] = target: Fuc(a1-2)Gal(b1-4)[Fuc(a1-3)]GlcNAc(b1-2)Man(a1-3)[Fuc(a1-2)Gal(b1-4)[Fuc(a1-3)]GlcNAc(b1-2)Man(a1-6)]Man(b1-4)GlcNAc(b1-4)[Fuc(a1-6)]GlcNAc
# Summary of the method: as §1
# [40] = target: Fuc(a1-2)Gal(b1-4)[Fuc(a1-3)]GlcNAc(b1-2)[Fuc(a1-2)Gal(b1-4)[Fuc(a1-3)]GlcNAc(b1-4)]Man(a1-3)[Fuc(a1-2)Gal(b1-4)[Fuc(a1-3)]GlcNAc(b1-2)Man(a1-6)]Man(b1-4)GlcNAc(b1-4)GlcNAc
# Summary of the method: as §1
# [41] = target: Fuc(a1-2)Gal(b1-4)[Fuc(a1-3)]GlcNAc(b1-3)Gal(b1-4)[Fuc(a1-3)]GlcNAc
# Summary of the method: as §1
# [42] = target: Fuc(a1-2)Gal(b1-4)[Fuc(a1-3)]GlcNAc(b1-3)Gal(b1-4)[Fuc(a1-3)]GlcNAc(b1-3)Gal(b1-4)[Fuc(a1-3)]GlcNAc
# Summary of the method: as §1
# [43] = target: Fuc(a1-2)Gal(b1-4)[Fuc(a1-3)]GlcNAc(b1-3)GalNAc
# Summary of the method: as §1
# [44] = target: Fuc(a1-2)Gal(b1-4)[Fuc(a1-3)]GlcNAc(b1-3)[Neu5Ac(a2-6)Gal(b1-4)GlcNAc(b1-6)]Gal(b1-4)Glc
# Summary of the method: as §1
# [45] = target: Fuc(a1-2)Gal3S(b1-4)GlcNAc
# Summary of the method: as §1
binder,measurement,setting,value
B1,glycan array binding signal (z-score),[1],-0.241
same,glycan array binding signal (z-score),[2],-0.26
same,glycan array binding signal (z-score),[3],-0.254
same,glycan array binding signal (z-score),[4],-0.249
same,glycan array binding signal (z-score),[5],-0.246
same,glycan array binding signal (z-score),[6],-0.2
same,glycan array binding signal (z-score),[7],-0.203
same,glycan array binding signal (z-score),[8],-0.222
same,glycan array binding signal (z-score),[9],-0.23
same,glycan array binding signal (z-score),[10],-0.168
same,glycan array binding signal (z-score),[11],-0.209
same,glycan array binding signal (z-score),[12],-0.232
same,glycan array binding signal (z-score),[13],-0.164
same,glycan array binding signal (z-score),[14],-0.194
same,glycan array binding signal (z-score),[15],-0.236
same,glycan array binding signal (z-score),[16],-0.202
same,glycan array binding signal (z-score),[17],-0.22
same,glycan array binding signal (z-score),[18],-0.187
same,glycan array binding signal (z-score),[19],-0.217
same,glycan array binding signal (z-score),[20],-0.206
same,glycan array binding signal (z-score),[21],-0.269
same,glycan array binding signal (z-score),[22],-0.125
same,glycan array binding signal (z-score),[23],-0.281
same,glycan array binding signal (z-score),[24],-0.221
same,glycan array binding signal (z-score),[25],-0.243
same,glycan array binding signal (z-score),[26],-0.187
same,glycan array binding signal (z-score),[27],-0.218
same,glycan array binding signal (z-score),[28],-0.209
same,glycan array binding signal (z-score),[29],-0.225
same,glycan array binding signal (z-score),[30],-0.056
same,glycan array binding signal (z-score),[31],1.52
same,glycan array binding signal (z-score),[32],0.974
same,glycan array binding signal (z-score),[33],-0.273
same,glycan array binding signal (z-score),[34],-0.225
same,glycan array binding signal (z-score),[35],-0.183
same,glycan array binding signal (z-score),[36],-0.25
same,glycan array binding signal (z-score),[37],-0.23
same,glycan array binding signal (z-score),[38],-0.245
same,glycan array binding signal (z-score),[39],-0.265
same,glycan array binding signal (z-score),[40],-0.226
same,glycan array binding signal (z-score),[41],-0.245
same,glycan array binding signal (z-score),[42],-0.151
same,glycan array binding signal (z-score),[43],-0.228
same,glycan array binding signal (z-score),[44],-0.269
same,glycan array binding signal (z-score),[45],-0.262

# Source: the supplement of paper PMC8728848
